# Data as given in the BET-seq Pho4 binding data (Le et al. 2018).
# The other results are listed elsewhere or left out. Values were computed here from the reads of four pooled replicates and scatter widely.
# Molecular target: T1, Pho4 (S. cerevisiae) (UniProt P07270)
# T1 sequence: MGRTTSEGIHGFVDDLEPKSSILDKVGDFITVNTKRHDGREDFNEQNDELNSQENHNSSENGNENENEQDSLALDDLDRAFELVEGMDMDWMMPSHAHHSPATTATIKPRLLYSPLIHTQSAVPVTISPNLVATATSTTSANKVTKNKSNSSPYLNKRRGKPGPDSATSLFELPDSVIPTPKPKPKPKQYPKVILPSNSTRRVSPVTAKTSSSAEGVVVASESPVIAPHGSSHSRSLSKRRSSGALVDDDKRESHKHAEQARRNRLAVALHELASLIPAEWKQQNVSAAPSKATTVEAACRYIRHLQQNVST
# Assay: relative binding free energy (BET-seq); higher = weaker binding
# Settings: reference: library average
row,Sequence,relative binding free energy [kcal/mol]
1,CATGACACGTGTGGTA,0.07
2,GGGCACACGTGGGTAA,-0.14
3,TTTATCACGTGATTAA,0.21
4,GATTACACGTGAAGTG,0.29
5,GTAAACACGTGTGGTC,0.16
6,AGGTGCACGTGGTTAG,-0.06
7,TATAGCACGTGACGGG,0.17
8,GCGTTCACGTGGTGTC,0.33
9,GCTTTCACGTGGGTTG,0.14
10,GGTGCCACGTGTGGGG,-0.06
11,GGGGGCACGTGGACGT,-0.14
12,AAGGGCACGTGGAGAA,-0.1
13,AATAGCACGTGACGGG,-0.03
14,CGTGGCACGTGTGGTA,-0.04
15,TTGGTCACGTGATTCT,0.3
16,AAGTTCACGTGGCTGT,0.22
17,TTGTTCACGTGGATAC,0.34
18,ACATGCACGTGGGCTG,-0.15
19,TTTAACACGTGGAAAA,0.23
20,ATATTCACGTGTTGCA,0.15
21,TAGAACACGTGTTTAT,0.07
22,AGGGTCACGTGCGACG,0.13
23,GGAGGCACGTGGGCGC,-0.29
24,TGATGCACGTGTTGTA,-0.01
25,TTTGACACGTGGTATG,-0.02

row,Sequence,relative binding free energy [kcal/mol]
1,TGGGTCACGTGGAGTT,0.23
2,CTATGCACGTGGTGTT,-0.15
3,TTGGGCACGTGGCGTG,-0.29
4,ATTCTCACGTGCGTGT,0.14
5,AGAGACACGTGGGTGA,-0.19
6,TATTACACGTGGAGGC,0.19
7,ATGATCACGTGGTTGC,0.06
8,TTGTTCACGTGGCCGG,0.14
9,GAAGGCACGTGGAGTT,-0.18
10,GGTAGCACGTGTGCTA,-0.05
11,GTCATCACGTGTGGGG,0.29
12,GTTTACACGTGGGGTC,0.05
13,ATATGCACGTGGCGGC,-0.1
14,TGGTGCACGTGGCAGC,-0.08
15,TTGATCACGTGGTCAT,-0.04
16,AGTAGCACGTGTTTCG,-0.09
17,GAGTGCACGTGGCGTT,-0.05
18,CGGTGCACGTGCGTTG,-0.08
19,TTTTACACGTGGCGAT,-0.12
20,GATTGCACGTGTTTTT,0.11
21,GTCTGCACGTGAGTGA,0.22
22,TTTCACACGTGCGTTT,0.05
23,AAGTGCACGTGTGTTT,-0.07
24,TTTTTCACGTGGTGCC,0.32
25,ACGGGCACGTGGTTTA,-0.19

row,Sequence,relative binding free energy [kcal/mol]
1,TAAGTCACGTGTTTAA,0.2
2,GATGGCACGTGTGTCA,-0.05
3,TGTGTCACGTGGGTTT,0.04
4,TAAAGCACGTGGTTCG,-0.11
5,AGTGGCACGTGATGAG,0.17
6,TGCGTCACGTGGGGGT,-0.04
7,GGTTTCACGTGGACTT,0.27
8,ATAGTCACGTGGCAGT,0.09
9,TGTTTCACGTGTTATT,0.27
10,CTTTTCACGTGATCGG,0.38
11,AGCAGCACGTGTGGCG,-0.06
12,TAGATCACGTGTTGAG,0.19
13,GGGAGCACGTGGCGTA,-0.16
14,TTAATCACGTGACGGT,0.16
15,TAGCACACGTGGGTTT,0.12
16,GAGTGCACGTGAACGG,0.32
17,CATGGCACGTGGATAT,-0.03
18,GTTTACACGTGTGTGA,0.23
19,TGTGGCACGTGATAGA,0.02
20,CTTGGCACGTGTAGAA,0.15
21,GAGGGCACGTGAGAGA,0.34
22,GCGGGCACGTGTTGCT,-0.01
23,ATGGTCACGTGTCTAT,0.01
24,TTTTTCACGTGAGCTA,0.24
25,GTTTACACGTGGTCGT,0.1

row,Sequence,relative binding free energy [kcal/mol]
1,AGGTACACGTGGGCCG,-0.09
2,AGTGACACGTGAGTTT,0.24
3,GATAGCACGTGGTGAG,-0.01
4,GGCTCCACGTGGTAGT,0.18
5,TATGTCACGTGATTAA,0.32
6,CGGGGCACGTGTGAGA,-0.01
7,TGGGGCACGTGATGTG,0.04
8,TTGTACACGTGGGATG,0.02
9,TGCTGCACGTGGTACG,-0.09
10,GGTTTCACGTGCGGTT,0.31
11,GTTAGCACGTGACTGT,0.07
12,AGGCCCACGTGTGGTT,-0.02
13,TGGCACACGTGTTAGT,0.15
14,GTGAGCACGTGGCGGG,-0.17
15,CTTGACACGTGGCGGG,-0.13
16,TTACTCACGTGATGGG,0.4
17,GTGTGCACGTGTGCGG,0.01
18,CGTGTCACGTGGGCAA,-0.05
19,ATGTTCACGTGGAATC,0.24
20,TTGGACACGTGTTGGA,0.17
21,GTGTTCACGTGTTTAA,0.13
22,TTCGGCACGTGGTACG,-0.3
23,AGTTTCACGTGTTTCT,0.22
24,TTGTGCACGTGCCGAT,-0.02
25,GTGGTCACGTGGGTCT,0.01

row,Sequence,relative binding free energy [kcal/mol]
1,TGGCTCACGTGGCATT,0.2
2,CTCAACACGTGGGGGG,-0.06
3,CTTCTCACGTGTGGGG,0.12
4,GTTTGCACGTGAATAG,0.37
5,TGCTGCACGTGGAATT,0.08
6,AAACTCACGTGTTAGG,0.22
7,GCGTACACGTGGTGTA,-0.05
8,ATAGTCACGTGTTTAC,0.14
9,TTTACCACGTGCTTGG,0.07
10,TGGGGCACGTGTATAT,-0.1
11,ATGCTCACGTGGGGTT,-0.05
12,TAAGGCACGTGTTATA,-0.23
13,TAGTACACGTGTAGGA,0.24
14,GTTGACACGTGGGCCG,-0.1
15,TGTCTCACGTGCGGGA,0.11
16,CCATGCACGTGGTTGT,-0.05
17,AGAGTCACGTGGATTT,0.06
18,TCTGGCACGTGAAATG,0.14
19,TATCTCACGTGTTGGT,0.12
20,GGTATCACGTGATTTG,0.31
21,GGGCTCACGTGGGTGG,0.1
22,GGCTTCACGTGTGATG,0.41
23,TTAATCACGTGGGGTC,0.01
24,TTTGTCACGTGGGGGC,0.09
25,TGGAGCACGTGCCGGT,-0.3

row,Sequence,relative binding free energy [kcal/mol]
1,TAGTTCACGTGTCGGA,0.3
2,CGTCGCACGTGATTGG,0.1
3,AATCTCACGTGTTTGT,0.19
4,GTAGACACGTGAAGGG,0.18
5,GGGAGCACGTGGGCTG,-0.2
6,AGTTTCACGTGAAAGA,0.42
7,TCTATCACGTGTTCGG,0.19
8,TATTACACGTGGAAAT,0.23
9,TTGGCCACGTGGAGGG,-0.09
10,GTGGGCACGTGTAGAG,-0.01
11,TGTTGCACGTGAGTTG,0.26
12,CGTGGCACGTGTCGGT,-0.1
13,TTCACCACGTGGTTGT,-0.04
14,TTTATCACGTGGGCGG,0
15,GAGTGCACGTGTTGTT,0.02
16,GGTTTCACGTGAGTAC,0.5
17,ATAGGCACGTGAGTCG,-0.01
18,GTACTCACGTGGGGGA,0.15
19,TGAGTCACGTGTACTG,0.14
20,GTAGACACGTGTGGGC,0.11
21,GAGATCACGTGGGCTT,0.18
